# The supplement of paper PMC4604168 (melanoma cell lines)
# The other results are listed elsewhere or left out. Single values are uncertain, as repeats are few or missing.
# Tested on: SkMel28
# Assay: cell count relative to DMSO control; melanoma cells; higher = more viable cells
# Settings: library dose: low library concentration; 72 h
# 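Note: cell number obtained by counting DAPI-stained nuclei in high-throughput microscope images with image analysis software, screen run in 1,536-well plates.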
row,SMILES,cell count [%]
1,"COc1ccc(C2=N[C@@H](c3ccc(Cl)cc3)[C@@H](c3ccc(Cl)cc3)N2C(=O)N2CCNC(=O)C2)c(OC(C)C)c1 [Nutlin-3] + c1cc(-c2cnn3cc(-c4ccc(OCCN5CCCCC5)cc4)cnc23)ccn1 [Dorsomorphin] (first compound 0.1 µM, partner dose 0.4 µM)",84.5
2,"Cn1c(=O)n(-c2ccc(C(C)(C)C#N)cc2)c2c3cc(-c4cnc5ccccc5c4)ccc3ncc21 + COc1cc(N2CCC(N3CCN(C)CC3)CC2)ccc1Nc1ncc(Cl)c(Nc2ccccc2S(=O)(=O)C(C)C)n1 [NVP-TAE684] (first compound 0.004 µM, partner dose 0.08 µM)",71.6
3,"COc1ccc(C2=N[C@@H](c3ccc(Cl)cc3)[C@@H](c3ccc(Cl)cc3)N2C(=O)N2CCNC(=O)C2)c(OC(C)C)c1 [Nutlin-3] + COc1cc2c(Oc3ccc4[nH]c(C)cc4c3F)ncnc2cc1OCCCN1CCCC1 [cediranib] (first compound 0.1 µM, partner dose 0.4 µM)",86.4
4,"CC(C)C[C@H](NC(=O)[C@H](Cc1ccccc1)NC(=O)c1cnccn1)B(O)O [Bortezomib] + NC(=O)Nc1cc(-c2cccc(F)c2)sc1C(=O)N[C@H]1CCCNC1 [AZD7762] (first compound 0.001 µM, partner dose 0.02 µM)",102
5,"CC(C)C[C@H](NC(=O)[C@H](Cc1ccccc1)NC(=O)c1cnccn1)B(O)O [Bortezomib] + O=C(O)c1ccc(-c2c[nH]c3ncc(-c4ccccc4)cc23)cc1C1CCCC1 [GSK650394] (first compound 0.001 µM, partner dose 0.16 µM)",80.7
6,"COc1ccc(C2=N[C@@H](c3ccc(Cl)cc3)[C@@H](c3ccc(Cl)cc3)N2C(=O)N2CCNC(=O)C2)c(OC(C)C)c1 [Nutlin-3] + O=C1NC(=O)/C(=C/c2ccc(-c3ccc(F)cc3O)o2)S1 [AS252424] (first compound 0.1 µM, partner dose 1 µM)",73.7
7,"Cn1c(=O)n(-c2ccc(C(C)(C)C#N)cc2)c2c3cc(-c4cnc5ccccc5c4)ccc3ncc21 + NCC(=O)Nc1ccc(-n2nc(C(F)(F)F)cc2-c2ccc3c(ccc4ccccc43)c2)cc1 [OSU03012] (first compound 0.004 µM, partner dose 1 µM)",59.9
8,"CC(C)C[C@H](NC(=O)[C@H](Cc1ccccc1)NC(=O)c1cnccn1)B(O)O [Bortezomib] + O=C(Nc1ccccc1)c1cc([N+](=O)[O-])ccc1Cl [GW9662] (first compound 0.001 µM, partner dose 2 µM)",96.4
9,"COc1ccc(C2=N[C@@H](c3ccc(Cl)cc3)[C@@H](c3ccc(Cl)cc3)N2C(=O)N2CCNC(=O)C2)c(OC(C)C)c1 [Nutlin-3] + Cn1cc(/C=C2\C(=O)Nc3cccnc32)c2ccccc21 [GW441756] (first compound 0.1 µM, partner dose 0.4 µM)",91.3
10,"Cn1c(=O)n(-c2ccc(C(C)(C)C#N)cc2)c2c3cc(-c4cnc5ccccc5c4)ccc3ncc21 + OCCn1cc(-c2cnc3nnn(Cc4ccc5ncccc5c4)c3n2)cn1 [PF04217903] (first compound 0.004 µM, partner dose 1 µM)",82.6
11,"Cc1cn(-c2cc(NC(=O)c3ccc(C)c(Nc4nccc(-c5cccnc5)n4)c3)cc(C(F)(F)F)c2)cn1 [nilotinib] + Oc1nc(-c2ccc(C(F)(F)F)cc2)nc2c1CSCC2 [XAV939] (first compound 0.2 µM, partner dose 2 µM)",102
12,"COc1ccc(C2=N[C@@H](c3ccc(Cl)cc3)[C@@H](c3ccc(Cl)cc3)N2C(=O)N2CCNC(=O)C2)c(OC(C)C)c1 [Nutlin-3] + CO[C@@H]1[C@H](N(C)C(=O)c2ccccc2)C[C@H]2O[C@]1(C)n1c3ccccc3c3c4c(c5c6ccccc6n2c5c31)C(=O)NC4 [Midostaurin] (first compound 0.1 µM, partner dose 0.08 µM)",92.6
13,"COc1ccc(C2=N[C@@H](c3ccc(Cl)cc3)[C@@H](c3ccc(Cl)cc3)N2C(=O)N2CCNC(=O)C2)c(OC(C)C)c1 [Nutlin-3] + C[C@@H]1CCN(C(=O)CC#N)C[C@@H]1N(C)c1ncnc2[nH]ccc12 [CP690550] (first compound 0.1 µM, partner dose 1 µM)",85.3
14,"Cc1cn(-c2cc(NC(=O)c3ccc(C)c(Nc4nccc(-c5cccnc5)n4)c3)cc(C(F)(F)F)c2)cn1 [nilotinib] + Cn1cncc1[C@@](N)(c1ccc(Cl)cc1)c1ccc2c(c1)c(-c1cccc(Cl)c1)cc(=O)n2C [tipifarnib] (first compound 0.2 µM, partner dose 0.01 µM)",83.8
15,"CC(C)C[C@H](NC(=O)[C@H](Cc1ccccc1)NC(=O)c1cnccn1)B(O)O [Bortezomib] + CC(C)CCN1c2nc(Nc3cc(F)c(O)c(F)c3)ncc2N(C)C(=O)C1C [BID1870] (first compound 0.001 µM, partner dose 0.2 µM)",77.1
16,"Cc1cn(-c2cc(NC(=O)c3ccc(C)c(Nc4nccc(-c5cccnc5)n4)c3)cc(C(F)(F)F)c2)cn1 [nilotinib] + O=C(CCCCCCC(=O)Nc1ccccc1)NO [vorinostat] (first compound 0.2 µM, partner dose 0.08 µM)",76.7
17,"Cn1c(=O)n(-c2ccc(C(C)(C)C#N)cc2)c2c3cc(-c4cnc5ccccc5c4)ccc3ncc21 + O=C1NC(=O)/C(=C/c2ccc(-c3ccc(F)cc3O)o2)S1 [AS252424] (first compound 0.004 µM, partner dose 1 µM)",83
18,"CC(C)C[C@H](NC(=O)[C@H](Cc1ccccc1)NC(=O)c1cnccn1)B(O)O [Bortezomib] + COc1ccc(-c2ccc3c(N4CCOCC4)nc(N4C[C@@H](C)O[C@@H](C)C4)nc3n2)cc1CO [KU0063794] (first compound 0.001 µM, partner dose 0.02 µM)",86.6
19,"Cc1cc(Nc2cc(N3CCN(C)CC3)nc(/C=C/c3ccccc3)n2)n[nH]1 + CC(C)(C)c1cnc(CSc2cnc(NC(=O)C3CCNCC3)s2)o1 [SNS-032] (first compound 0.04 µM, partner dose 0.01 µM)",92
20,"Cc1cc(Nc2cc(N3CCN(C)CC3)nc(/C=C/c3ccccc3)n2)n[nH]1 + O=C(O)c1ccc(-c2c[nH]c3ncc(-c4ccccc4)cc23)cc1C1CCCC1 [GSK650394] (first compound 0.04 µM, partner dose 0.16 µM)",76
21,"Cc1cn(-c2cc(NC(=O)c3ccc(C)c(Nc4nccc(-c5cccnc5)n4)c3)cc(C(F)(F)F)c2)cn1 [nilotinib] + COC(=O)c1sccc1S(=O)(=O)Nc1ccc(Nc2ccccc2)cc1OC [GSK0660] (first compound 0.2 µM, partner dose 1 µM)",89.2
22,"Cn1c(=O)n(-c2ccc(C(C)(C)C#N)cc2)c2c3cc(-c4cnc5ccccc5c4)ccc3ncc21 + CO[C@@H]1[C@H](N(C)C(=O)c2ccccc2)C[C@H]2O[C@]1(C)n1c3ccccc3c3c4c(c5c6ccccc6n2c5c31)C(=O)NC4 [Midostaurin] (first compound 0.004 µM, partner dose 0.08 µM)",67.1
23,"Cc1cn(-c2cc(NC(=O)c3ccc(C)c(Nc4nccc(-c5cccnc5)n4)c3)cc(C(F)(F)F)c2)cn1 [nilotinib] + NC(=O)Nc1cc(-c2cccc(F)c2)sc1C(=O)N[C@H]1CCCNC1 [AZD7762] (first compound 0.2 µM, partner dose 0.02 µM)",101
24,"COc1ccc(C2=N[C@@H](c3ccc(Cl)cc3)[C@@H](c3ccc(Cl)cc3)N2C(=O)N2CCNC(=O)C2)c(OC(C)C)c1 [Nutlin-3] + O=c1cc(-c2cccc3c2Sc2ccccc2S3)oc(N2CCOCC2)c1 [KU55933] (first compound 0.1 µM, partner dose 1 µM)",96.3
25,"Cc1cn(-c2cc(NC(=O)c3ccc(C)c(Nc4nccc(-c5cccnc5)n4)c3)cc(C(F)(F)F)c2)cn1 [nilotinib] + O=S(=O)(c1ccccc1)N(CC(F)(F)F)c1ccc(C(O)(C(F)(F)F)C(F)(F)F)cc1 [T0901317] (first compound 0.2 µM, partner dose 1.4 µM)",95.3
26,"Cc1cc(Nc2cc(N3CCN(C)CC3)nc(/C=C/c3ccccc3)n2)n[nH]1 + Cc1ccc(NC(=O)c2cccc(N(C)C)c2)cc1NC(=O)c1ccc(O)cc1 [ZM336372] (first compound 0.04 µM, partner dose 2 µM)",80.9
27,"Cn1c(=O)n(-c2ccc(C(C)(C)C#N)cc2)c2c3cc(-c4cnc5ccccc5c4)ccc3ncc21 + c1cc(-c2cnn3cc(-c4ccc(OCCN5CCCCC5)cc4)cnc23)ccn1 [Dorsomorphin] (first compound 0.004 µM, partner dose 0.4 µM)",73.5
28,"COc1ccc(C2=N[C@@H](c3ccc(Cl)cc3)[C@@H](c3ccc(Cl)cc3)N2C(=O)N2CCNC(=O)C2)c(OC(C)C)c1 [Nutlin-3] + Oc1nc(-c2ccc(C(F)(F)F)cc2)nc2c1CSCC2 [XAV939] (first compound 0.1 µM, partner dose 2 µM)",97.7
29,"Cc1cc(Nc2cc(N3CCN(C)CC3)nc(/C=C/c3ccccc3)n2)n[nH]1 + CCN(CC)CCCCNc1ncc2cc(-c3cc(OC)cc(OC)c3)c(NC(=O)NC(C)(C)C)nc2n1 [PD173074] (first compound 0.04 µM, partner dose 0.1 µM)",85.8
